# Data reported in the antibiotic and cytotoxicity screens of Wong et al. (2023).
# Some of the results follow.
# Test system: HSkMC (human skeletal muscle cells)
# Assay: cytotoxicity call (relative viability < 0.9)
# Details: 10 µM
row,Compound,cytotoxicity call
1,CN(C)CCCNC(=O)C[C@H]1C=C[C@H](NC(=O)Cc2cccnc2)[C@H](CO)O1,inactive
2,C[C@@H]1CN([C@H](C)CO)C(=O)c2cccc(NC(=O)c3nc4ccccc4s3)c2O[C@@H]1CN(C)Cc1ccc(Cl)c(Cl)c1,inactive
3,Cc1noc(C)c1S(=O)(=O)Nc1ccc2c(c1)C(=O)N([C@@H](C)CO)C[C@H](C)[C@H](CN(C)Cc1ccccc1)O2,inactive
4,COc1ccc(NC(=O)N(C)C[C@@H]2Oc3ccc(NC(=O)Cn4cnnn4)cc3C(=O)N([C@H](C)CO)C[C@H]2C)cc1,inactive
5,C[C@@H]1CN([C@H](C)CO)C(=O)Cc2cc(NC(=O)NC3CCCCC3)ccc2O[C@H]1CN(C)C(=O)Nc1cccc2ccccc12,inactive
6,COC(=O)C1=C2CC[C@H](COC(=O)NCCCCCC(=O)NO)NC(=O)N[C@@H](Cc3ccccc3)c3cn(nn3)C[C@@H](Cc3ccccc3)NC(=O)c3oc(c(C(=O)OC)c3C(=O)OC)CC[C@H](COC(=O)NCCCCCC(=O)NO)NC(=O)N[C@@H](Cc3ccccc3)c3cn(nn3)C[C@@H](Cc3ccccc3)NC(=O)C(=C1C(=O)OC)O2,inactive
7,COc1cc(OC)cc(-c2ccc([C@H]3CC(=O)C[C@@H](c4ccccc4)C34C(=O)OC(C)(C)OC4=O)cc2)c1,inactive

# Test system: HepG2
# Assay: cytotoxicity call (relative viability < 0.9)
# Details: 10 µM
row,Compound,cytotoxicity call
1,Cn1nnc2c1[C@H](COCC1CC1)CNC2,inactive
2,C[C@@H]1CN([C@H](C)CO)C(=O)Cc2cc(NC(=O)Cc3ccccc3)ccc2O[C@@H]1CN(C)S(=O)(=O)c1ccc(F)cc1,inactive
3,CNC(=O)c1ccc(N)cc1,inactive
4,CN1C(=O)c2cc(NS(=O)(=O)c3ccc(F)cc3)ccc2OC[C@@H]2O[C@@H](CC(=O)NCC(F)(F)F)CC[C@H]21,inactive
5,CC(O)C1C(=O)N2C(C(=O)[O-])=C(SC3Cn4cnc[n+]4C3)C(C)C12 (configuration not stated),inactive
6,C[C@@H]1CN([C@H](C)CO)C(=O)c2cccc(NC(=O)Nc3ccc4c(c3)OCO4)c2O[C@H]1CN(C)Cc1ccc(C(F)(F)F)cc1,active
7,Cc1ccc(S(=O)(=O)Nc2cccc3c2O[C@@H](CN(C)S(=O)(=O)c2ccccc2)[C@H](C)CN([C@H](C)CO)C3=O)cc1,inactive
8,CC(C)NC(=O)N(C)C[C@H]1Oc2c(NS(=O)(=O)c3ccc(F)cc3)cccc2C(=O)N([C@@H](C)CO)C[C@H]1C,inactive
9,CCN1C(=O)[C@H]2[C@H](O)CS[C@H]2C1=O,inactive
10,C[C@H]1CN([C@@H](C)CO)S(=O)(=O)c2ccc(C3=CCCC3)cc2O[C@H]1CN(C)S(=O)(=O)c1ccc(F)cc1,inactive
11,C[C@H](CO)N1C[C@H](C)[C@@H](CN(C)C(=O)CN2CCOCC2)Oc2ncc(C#CCN(C)C)cc2C1=O,inactive
12,C[C@H]1CC[C@@H]2N(C1)C[C@@H]1[C@H]([C@@H](O)[C@H](O)[C@]3(O)[C@H]1C[C@@]14O[C@]5(O)[C@@H](C[C@@H](O)[C@@H]31)[C@]4(C)CC[C@@H]5O)[C@]2(C)O,inactive
13,C[C@H](CO)N1C[C@H](C)[C@H](CN(C)Cc2ccc(Cl)c(Cl)c2)Oc2ccc(NC(=O)Cc3cn(C)c4ccccc34)cc2CC1=O,active
14,Cc1cc(=O)n2nc(S(C)(=O)=O)nc2[nH]1,inactive
15,COCC(=O)N1CC[C@]2(CC1)CN(Cc1ccc3c(c1)OCO3)[C@H](CO)c1c2c2ccc(cc2n1C)OC,inactive
16,CCNC(=O)C[C@@H]1CC[C@@H](NC(=O)C2CCOCC2)[C@@H](CO)O1,inactive
17,COc1ccc(CN(C)C[C@@H]2OCCCC[C@@H](C)Oc3ccc(NC(=O)Nc4ccccc4)cc3C(=O)N([C@H](C)CO)C[C@@H]2C)cc1,inactive
18,Cc1cc(C(=O)Nc2cccc3c2O[C@@H](CN(C)Cc2ccc(C(=O)O)cc2)[C@H](C)CN([C@H](C)CO)C3=O)n(C)n1,inactive
19,CCN(CC)CCNC(=O)c1ccc(N)cc1.Cl,inactive
20,COc1ccc(CN(C)C[C@H]2OCCCC[C@@H](C)Oc3ccc(NS(=O)(=O)c4c(C)noc4C)cc3C(=O)N([C@@H](C)CO)C[C@H]2C)cc1,inactive

row,Compound,cytotoxicity call
1,C[C@@H]1CCCCO[C@@H](CN(C)C(=O)CCCN(C)C)[C@H](C)CN([C@@H](C)CO)C(=O)c2cc(N(C)C)ccc2O1,inactive
2,C[C@@H]1CCCCO[C@H](CN(C)C(=O)c2ccccc2)[C@H](C)CN([C@@H](C)CO)C(=O)c2cc(NS(=O)(=O)c3ccccc3)ccc2O1,inactive
3,COc1ccc2c3c(n(c2c1)C)[C@H](CO)N(C[C@]13CN(C1)C(=O)Cc1ccccc1)C(=O)c1ccccn1,inactive
4,CNC(=O)Cn1c(=O)c2c(OC)c(C)cnc2n(C)c1=O,inactive
5,NC(=O)CSc1nnnn1-c1ccccc1,inactive
6,C[C@@H]1CN([C@H](C)CO)C(=O)c2cccc(NC(=O)c3ccncc3)c2O[C@@H]1CN(C)S(=O)(=O)c1ccccc1,inactive
7,C/C(C[P+](c1ccccc1)(c1ccccc1)c1ccccc1)=N\NC(=O)CCCCCCC(=O)Nc1ccccc1O,inactive
8,Cc1ccc(S(=O)(=O)N(C)C[C@H]2Oc3c(NC(=O)c4ccncc4)cccc3C(=O)N([C@@H](C)CO)C[C@@H]2C)cc1,inactive
9,Cc1ccc(S(=O)(=O)Nc2ccc3c(c2)C(=O)N([C@@H](C)CO)C[C@H](C)[C@@H](CN(C)C(=O)Nc2cccc4ccccc24)O3)cc1,inactive
10,COc1ccc([C@@H]([C@H](Cc2ccccc2)OC(C)=O)N2C[C@@H](NC(=O)C(Cl)(Cl)Cl)[C@@H]3[C@H]([C@@H]2Cc2ccccc2)N(C)O[C@H]3c2ccccc2)cc1,inactive
11,CC(O)(P(=O)(O)O)P(=O)(O)O,inactive
12,NCC[C@@H]1CC[C@H](NC(=O)C2CC2)[C@@H](CO)O1,inactive
13,O=C(C1=C[C@@H](c2ccc(Br)cc2)C[C@@H](OCc2ccc(CO)cc2)O1)N1CCCCCCC1,inactive
14,CN(C)CCCNC(=O)C[C@H]1C=C[C@H](NC(=O)Cc2cccnc2)[C@H](CO)O1,inactive
15,C[C@@H]1CN([C@H](C)CO)C(=O)c2cccc(NC(=O)c3nc4ccccc4s3)c2O[C@@H]1CN(C)Cc1ccc(Cl)c(Cl)c1,inactive
16,Cc1noc(C)c1S(=O)(=O)Nc1ccc2c(c1)C(=O)N([C@@H](C)CO)C[C@H](C)[C@H](CN(C)Cc1ccccc1)O2,inactive
17,COc1ccc(NC(=O)N(C)C[C@@H]2Oc3ccc(NC(=O)Cn4cnnn4)cc3C(=O)N([C@H](C)CO)C[C@H]2C)cc1,inactive
18,C[C@@H]1CN([C@H](C)CO)C(=O)Cc2cc(NC(=O)NC3CCCCC3)ccc2O[C@H]1CN(C)C(=O)Nc1cccc2ccccc12,inactive
19,COC(=O)C1=C2CC[C@H](COC(=O)NCCCCCC(=O)NO)NC(=O)N[C@@H](Cc3ccccc3)c3cn(nn3)C[C@@H](Cc3ccccc3)NC(=O)c3oc(c(C(=O)OC)c3C(=O)OC)CC[C@H](COC(=O)NCCCCCC(=O)NO)NC(=O)N[C@@H](Cc3ccccc3)c3cn(nn3)C[C@@H](Cc3ccccc3)NC(=O)C(=C1C(=O)OC)O2,inactive
20,COc1cc(OC)cc(-c2ccc([C@H]3CC(=O)C[C@@H](c4ccccc4)C34C(=O)OC(C)(C)OC4=O)cc2)c1,inactive
